In all, about 350,000 compounds went through this assay and about 9,900 (2.8%) were called active. The inconclusive results got no clear call from the source; some entries with a clear call stand among them for comparison. Calls follow the shape of the dose curve; as a rule, active = well fitted activation curve with a large enough effect; inconclusive = small, poorly fitted or top-dose-only effect; inactive = no such curve, though single readings can be large or run the other way. Potencies of inconclusive entries are left out as doubtful fits.
Test: A quantitative high throughput screen for small molecules that induce DNA re-replication in MCF 10a normal breast cells. Also: nearly all actives have a fitted effect of over 50% in size. As to activity, positive = re-replication: % of control where 0% means no effect.
Settings: MCF 10A DNA re-replication, Hoechst nuclear intensity, 48 h; activity, positive = re-replication: at 46.1 µM (top of the series)
Potency is read from the fitted curve at half-maximal effect; tags tell the direction and shape of the fitted curve.

Compound | Potency | activity, positive = re-replication
O=C1C(NS(=O)(=O)c2cccs2)=C(N2CCN(c3cccc(Cl)c3)CC2)C(=O)c2ccccc21 | inconclusive [activator, partial curve, poor fit] | 
CCOC(=O)CN1C(=O)CSc2ccccc21 | inconclusive [activator, partial curve, poor fit] | 
C/C(Cl)=C\Cn1c(N2CCCCCC2)nc2c1c(=O)n(C)c(=O)n2C | inconclusive [activator, single point] | 
N#Cc1ccccc1NC(=O)c1ccccc1OCC(=O)Nc1ccc2c(c1)oc1ccccc12 |  | inactive: 7.46%
O=C(c1cc([N+](=O)[O-])ccc1Cl)N1CCN(c2ccc([N+](=O)[O-])cc2)CC1 | inconclusive [activator, partial curve, poor fit] | 
CN(C)C(CNc1ccc(C(N)=O)cc1[N+](=O)[O-])c1ccccc1 (stereo not drawn) |  | inactive: 3.75%
COc1cccc(NC(=O)CSc2nc3c([nH]c4ccccc43)c(=O)n2C)c1 | inconclusive [activator, single point] | 
O=C(N/N=C/C(Cl)=C/c1ccc([N+](=O)[O-])cc1)C(=O)Nc1ccc(C(=O)O)cc1 | inconclusive [activator, single point] | 
CSc1nc2[nH]c(=O)n(O)c(=O)c2n1Cc1ccccc1 | inconclusive [activator, partial curve, poor fit] | 
CCCCCN(C(=O)CCC(=O)OCC(=O)N1C(C)CCCC1C)c1c(N)n(CCCC)c(=O)[nH]c1=O (stereo not drawn) |  | inactive: -2.56%
CCn1c(CC(=O)Nc2cccc(OC)c2)nnc1SCC(=O)Nc1nccs1 | inconclusive [activator, single point] | 
COc1cc(N=Nc2ccc(C(=O)N(C)C)cc2)c(C)cc1N |  | inactive: -32.7%
CCC1CCC(N2CCN(c3ccc(F)cc3)CC2)CC1 (stereo not drawn) | inconclusive [activator, partial curve, poor fit] | 
CC(C)=CCc1c2c(c3occ(-c4ccc(O)cc4)c(=O)c3c1O)C=CC(C)(C)O2 | inconclusive [activator, full curve, poor fit] | 
COc1ccccc1P(=O)(Cc1ccccc1[N+](=O)[O-])c1ccccc1 (stereo not drawn) |  | inactive: 9.29%
COc1cc(/C=N/Nc2nc3ccccc3s2)ccc1OC(=O)c1ccccc1F | active: 20.6 µM | 
CCN1CCN(C(=O)C2CCN(S(=O)(=O)N3CCC4(CC3)OCCO4)CC2)CC1 |  | inactive: -2.11%
Cc1ccc(-c2cc(C(=O)N3CCCCC3)c3ccccc3n2)cc1C | inconclusive [activator, single point] | 

Reference: PubChem BioAssay AID624296 (National Center for Advancing Translational Sciences (NCATS), 2012)
